{
  "source": "PubChem BioAssay AID1476",
  "about": "(National Center for Advancing Translational Sciences (NCATS), 2009)",
  "note": "Screen size: about 200,000 compounds; about 4,500 (2.2%) were called active. The inconclusive results got no clear call from the source; some entries with a clear call stand among them for comparison. Calls follow the shape of the dose curve; as a rule, active = well fitted inhibition curve with a large enough effect; inconclusive = small, poorly fitted or top-dose-only effect, or effect the other way; inactive = flat fitted curve, though single readings scatter. A potency beside an inconclusive call is a rough fit, not a confirmed value. Potency is read from the fitted curve at half-maximal effect; tags tell the direction and shape of the fitted curve.",
  "data": [
    {"target": "Cruzipain (Trypanosoma cruzi) (UniProt P25779)", "sequence (P25779 whole entry, looked up)": "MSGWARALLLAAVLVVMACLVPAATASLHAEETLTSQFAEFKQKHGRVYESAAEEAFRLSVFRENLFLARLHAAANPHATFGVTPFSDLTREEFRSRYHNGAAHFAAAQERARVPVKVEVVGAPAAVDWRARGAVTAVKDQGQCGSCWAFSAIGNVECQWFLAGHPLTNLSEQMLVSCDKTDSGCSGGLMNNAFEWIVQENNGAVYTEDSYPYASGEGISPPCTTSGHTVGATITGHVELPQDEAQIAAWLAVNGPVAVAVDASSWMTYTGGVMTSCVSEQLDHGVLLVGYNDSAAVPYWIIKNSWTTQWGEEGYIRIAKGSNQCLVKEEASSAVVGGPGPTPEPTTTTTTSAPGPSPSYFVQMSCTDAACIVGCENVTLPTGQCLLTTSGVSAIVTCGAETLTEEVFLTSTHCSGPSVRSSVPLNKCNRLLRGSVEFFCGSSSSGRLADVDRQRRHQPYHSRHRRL", "test": "qHTS Assay for Promiscuous and Specific Inhibitors of Cruzain (without detergent); also: nearly all actives have a fitted effect of over 40% in size;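 as to max response, negative = inhibition: plate controls were enzyme without inhibitor for no effect and buffer without enzyme for full effect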", "settings": "purified cruzain, Z-FR-AMC fluorescence, no detergent", "in_short": "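Purified cruzain at 1.5 nM, pre-incubated 15 min with compound at room temperature in 100 mM sodium acetate pH 5.5, 5 mM DTT, 0.00005% Triton X-100. Reaction started with 2 uM Z-FR-AMC; AMC fluorescence increase over 60 s gives rate.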", "values": [
      {"smiles": "Cn1c(=O)c2c(nc(CN3CCC(C(N)=O)CC3)n2Cc2c(Cl)cccc2Cl)n(C)c1=O", "max response, negative = inhibition": "inactive: -1.33%"},
      {"smiles": "CC(C)(C)OC(=O)NCCCCCc1nnc(SCC(=O)Nc2cccc(Cl)c2)o1", "Potency": "inconclusive: 31.6 µM [activator, partial curve]"},
      {"smiles": "COc1cc2c3nnc(-c4ccc(F)cc4)c-3cn(Cc3ccc(C)cc3)c2cc1OC", "Potency": "inconclusive: 39.8 µM [inhibitor, single point]"},
      {"smiles": "CCOC(=O)c1c(C)oc2nc(C)nc(N3CCN(c4cccc(C(F)(F)F)c4)CC3)c12", "max response, negative = inhibition": "inactive: -14.2%"},
      {"smiles": "COc1ccc(C2CC(=O)N(CC(=O)Nc3ccc(C(C)=O)cc3)c3ccccc3S2)cc1OC", "note": "(centres undefined)", "Potency": "inconclusive: 39.8 µM [activator, single point]"},
      {"smiles": "Cc1c(/C=N/n2cnnc2)c2ccccc2n1CCOc1ccccc1", "Potency": "inconclusive: 39.8 µM [activator, single point]"},
      {"smiles": "COCCN(CCOC)c1nc(S(=O)(=O)c2ccc(C)cc2)c(Cl)s1", "Potency": "inconclusive: 39.8 µM [activator, single point]"},
      {"smiles": "O=C(Nc1ccc(Cl)cc1C(F)(F)F)C(Sc1nnc(-c2cccs2)o1)c1ccccc1", "note": "(centres undefined)", "Potency": "inconclusive: 39.8 µM [inhibitor, single point]"},
      {"smiles": "CC#C[C@]1(O)CC[C@H]2[C@@H]3CCC4=CC(=O)CCC4=C3[C@@H](c3ccc(N(C)C)cc3)C[C@@]21C", "Potency": "inconclusive: 39.8 µM [activator, single point]"},
      {"smiles": "COc1ccc(Oc2nc(-c3ccccc3)ncc2S(=O)(=O)c2ccccc2)cc1", "Potency": "inconclusive: 6.31 µM [inhibitor, single point]"},
      {"smiles": "Cc1c(C(=O)NCc2ccc(OC(C)C)cc2)sc2ncnc(N(C)C3CCCCC3)c12", "max response, negative = inhibition": "inactive: 9.14%"},
      {"smiles": "O=C(CSc1nnnn1-c1ccc2c(c1)OCCO2)N1CCc2ccccc21", "Potency": "inconclusive: 31.6 µM [inhibitor, single point]"},
      {"smiles": "Cc1cc(=O)n2[nH]c(NC(=O)c3cccc(Cl)c3)nc2n1", "max response, negative = inhibition": "inactive: -6.24%"},
      {"smiles": "C1CCCNCC1", "max response, negative = inhibition": "inactive: -9.11%"},
      {"smiles": "Cc1ccccc1NC(=S)NCc1ccc2c(c1)cc(C)n2C", "Potency": "inconclusive: 39.8 µM [inhibitor, single point]"},
      {"smiles": "O=C1/C(=C\\c2ccc3c(c2)OCO3)CCC/C1=C/c1ccc2c(c1)OCO2", "Potency": "inconclusive: 31.6 µM [inhibitor, single point]"},
      {"smiles": "Cc1ccc(Cl)c(OCC(=O)Nc2ccc3c(c2)OCCO3)c1", "max response, negative = inhibition": "inactive: -6.31%"},
      {"smiles": "C=C1C(=O)O[C@H]2C1CC[C@@](C)(O)C13C=CC(C)(C21)C1(C3)C(=O)O[C@@H]2C3C(C)=CCC3[C@](C)(O)C[C@H](OC(C)=O)C21", "note": "(some centres undefined)", "Potency": "inconclusive: 31.6 µM [activator, single point]"},
      {"smiles": "CCOCCc1nn2c(=O)cc(COC(=O)c3ccccc3NC(=O)CC(C)C)nc2s1", "Potency": "inconclusive: 39.8 µM [activator, single point]"},
      {"smiles": "CC1=Nc2cc(C(=O)NC3CCCC3)ccc2Sc2ccc(Cl)cc21", "Potency": "inconclusive: 31.6 µM [inhibitor, single point]"},
      {"smiles": "COC(=O)c1ccc(C(=O)OC)c(NC(=O)c2cnn3c(C(F)F)cc(-c4ccc(C)cc4)nc23)c1", "max response, negative = inhibition": "inactive: -3.58%"},
      {"smiles": "N#Cc1ccc(NC(=O)COC(=O)CNC(=O)C2CCCCC2)cc1", "Potency": "active: 3.98 µM"},
      {"smiles": "CCOc1ccc(-n2nc3ccc(NC(=O)c4ccc(C)cc4C)cc3n2)cc1", "max response, negative = inhibition": "inactive: 15.4%"},
      {"smiles": "CCOc1ccc(-c2c(=O)n(OCc3ccc([N+](=O)[O-])cc3)c3ccccc3[n+]2[O-])cc1", "Potency": "inconclusive: 0.794 µM [inhibitor, partial curve, poor fit]"},
      {"smiles": "CCc1nnc(NC(=O)CSc2nc(-c3ccc(F)cc3)cc(-c3ccccc3)c2C#N)s1", "Potency": "active: 7.94 µM"},
      {"smiles": "Cc1cccc(N(C)C(=O)c2cc3c(=O)oc4ccc(C)cc4c3s2)c1", "max response, negative = inhibition": "inactive: -5.74%"},
      {"smiles": "O=C(Nc1c(C(=O)N2CCN(c3ccccc3)CC2)oc2ccccc12)c1ccccc1F", "max response, negative = inhibition": "inactive: -14%"},
      {"smiles": "COC(=O)c1ccc(C(=O)OC)nc1", "max response, negative = inhibition": "inactive: 0.894%"},
      {"smiles": "O=C(Nc1nc(-c2cc(Cl)sc2Cl)cs1)c1cccs1", "Potency": "inconclusive: 31.6 µM [inhibitor, single point]"},
      {"smiles": "CC1CC(=O)N(CC(=O)Nc2ccc(OC(F)(F)F)cc2)c2ccccc2S1", "note": "(centres undefined)", "Potency": "inconclusive: 31.6 µM [activator, single point]"},
      {"smiles": "Cc1cccc(Nc2nc(-c3ccc4c(c3)OCCO4)cs2)c1", "Potency": "inconclusive: 39.8 µM [inhibitor, single point]"},
      {"smiles": "O=c1c2c(nc3n1CCCCC3)sc1c(O)c(Br)ccc12", "Potency": "inconclusive: 20 µM [inhibitor, single point]"},
      {"smiles": "CC(=S)/C=C1\\Sc2ccccc2N1C", "Potency": "inconclusive: 25.1 µM [inhibitor, single point]"},
      {"smiles": "O=C(NCCc1ccccc1)C(=O)N/N=C/c1ccccc1C(F)(F)F", "Potency": "inconclusive: 39.8 µM [inhibitor, single point]"},
      {"smiles": "COc1ccc(OC)c(NC(=O)Cn2c(CCC(=O)O)ccc2-c2ccccc2)c1", "Potency": "inconclusive: 39.8 µM [activator, single point]"},
      {"smiles": "CC(CCc1ccccc1)NC(=O)COc1ccc(S(=O)(=O)N2CCOCC2)cc1[N+](=O)[O-]", "note": "(centres undefined)", "Potency": "inconclusive: 31.6 µM [activator, partial curve]"},
      {"smiles": "COc1ccc(Nc2ccc(S(=O)(=O)N3CCCCC3)cc2[N+](=O)[O-])cc1OC", "Potency": "inconclusive: 39.8 µM [activator, single point]"},
      {"smiles": "CCOC(=O)C1=C(C)Nc2sc(C(=O)c3ccc(C)cc3)c(N)c2C1c1ccc(C(=O)OC)cc1", "note": "(centres undefined)", "Potency": "inconclusive: 31.6 µM [inhibitor, single point]"},
      {"smiles": "Cc1cccc(C)c1N1C(=O)C2ON(c3ccccc3)C(c3ccncc3)C2C1=O", "note": "(centres undefined)", "Potency": "inconclusive: 25.1 µM [activator, single point]"},
      {"smiles": "O=C1C=C(NCCc2cc(Br)c(O)c(Br)c2)C(=O)c2ncccc21", "max response, negative = inhibition": "inactive: -7.05%"},
      {"smiles": "O=C(COc1ccc2ccccc2c1Br)N1CCN(c2ccccn2)CC1", "Potency": "inconclusive: 39.8 µM [activator, single point]"},
      {"smiles": "O=C(CC12CC3CC(C1)CC(CC(=O)NC1=NCCS1)(C3)C2)NC1=NCCS1", "Potency": "active: 25.1 µM"},
      {"smiles": "CCOc1ccccc1NC(=O)Cn1c(=O)n(Cc2ccccc2)c(=O)c2c3c(sc21)CN(C(C)=O)CC3", "Potency": "inconclusive: 6.31 µM [activator, single point]"},
      {"smiles": "O=C(CCCCC(=O)N1CCN(c2ccccc2)CC1)N1CCN(c2ccccc2)CC1", "Potency": "inconclusive: 31.6 µM [activator, single point]"},
      {"smiles": "CCOC(=O)c1ccccc1NC(=O)COc1cc(=O)n(CC)c2ccccc12", "Potency": "inconclusive: 39.8 µM [activator, single point]"},
      {"smiles": "CCCC1=Nc2cc(C(=O)NCCCOCC)ccc2Sc2ccccc21", "Potency": "inconclusive: 39.8 µM [activator, single point]"},
      {"smiles": "O=C(Nc1cccc(Cl)c1)c1cc(S(=O)(=O)N2CCC3(CC2)OCCO3)ccc1F", "Potency": "inconclusive: 39.8 µM [activator, single point]"},
      {"smiles": "O=S(=O)(NCCc1cn2ccsc2n1)c1ccc(Cl)cc1", "max response, negative = inhibition": "inactive: 2.12%"},
      {"smiles": "O=C(CN1C(=O)COc2ccc(S(=O)(=O)N3CCOCC3)cc21)N1CCN(c2ccc(Cl)cc2)CC1", "Potency": "inconclusive: 31.6 µM [activator, single point]"},
      {"smiles": "CCOC(=O)c1cnc(-n2nc(C)cc2C)nc1Nc1ccc(N(C)C)cc1", "Potency": "inconclusive: 39.8 µM [activator, single point]"},
      {"smiles": "CCOC(=O)c1cc2c(=O)n3ccccc3nc2n(Cc2ccco2)c1=NC(=O)c1ccc(F)cc1", "max response, negative = inhibition": "inactive: -18.9%"},
      {"smiles": "Cc1cc2c(=O)n(CC(=O)N3CCN(c4ccc(F)cc4)CC3)cnc2s1", "Potency": "inconclusive: 31.6 µM [inhibitor, single point]"},
      {"smiles": "Cc1cc(C(=O)Nc2nnc(-c3ccccc3)s2)no1", "Potency": "inconclusive: 39.8 µM [inhibitor, single point]"},
      {"smiles": "CC(C)Oc1ccc(-c2nn(-c3ccccc3)cc2/C=c2\\sc3ncnn3c2=O)cc1", "Potency": "inconclusive: 3.98 µM [activator, single point]"},
      {"smiles": "Cc1ccc(C(=O)c2sc(Nc3ccc(F)cc3)nc2N)c(C)c1", "Potency": "inconclusive: 25.1 µM [inhibitor, single point]"},
      {"smiles": "CCOC(=O)c1c(NC(=O)c2ccccc2N(C)S(=O)(=O)c2ccccc2)sc2c1CCCC2", "Potency": "active: 20 µM"},
      {"smiles": "CC1=C(c2ccc(C)cc2)S(=O)(=O)N(Cc2ccc(C(=O)NCc3ccccc3F)cc2)C1=O", "Potency": "inconclusive: 39.8 µM [inhibitor, single point]"},
      {"smiles": "Nc1cc(-c2ccccc2)nn1S(=O)(=O)c1ccc(Br)cc1", "Potency": "inconclusive: 39.8 µM [inhibitor, single point]"},
      {"smiles": "CC(C)c1ccc(OCc2cccc(C(=O)N/N=C/c3cccnc3)c2)cc1", "Potency": "inconclusive: 39.8 µM [activator, single point]"},
      {"smiles": "Clc1ccc(Br)cc1-c1nc(-c2ccncc2)no1", "Potency": "inconclusive: 12.6 µM [inhibitor, single point]"},
      {"smiles": "O=C(NC12CC3CC(CC(C3)C1)C2)N1CCN(c2nc(-c3ccccc3)cs2)CC1", "Potency": "inconclusive: 31.6 µM [inhibitor, single point]"},
      {"smiles": "COc1ccccc1NS(=O)(=O)c1cc(NC(=O)/C=C/c2cccs2)ccc1N1CCOCC1", "Potency": "active: 25.1 µM"},
      {"smiles": "COc1ccc(CN2C(=O)N(c3ccc(C)cc3)C(=O)C2CC(=O)Nc2ccccc2)cc1OC", "note": "(centres undefined)", "max response, negative = inhibition": "inactive: 12.9%"},
      {"smiles": "COc1ccccc1C(=O)NC1=NC(c2ccc(Br)cc2)CC(=O)N1", "note": "(centres undefined)", "Potency": "inconclusive: 25.1 µM [activator, single point]"}
    ]}
  ]
}
